# Source: PubChem BioAssay AID651820 (National Center for Advancing Translational Sciences (NCATS), 2012)
# Hit rate of the full screen: of about 340,000 compounds, about 12,000 (3.5%) were called active. The shares of active, inactive and inconclusive entries below differ from those in the screen. Calls come from the whole dose curve; as a rule, active = well fitted inhibition curve with a large enough effect; inconclusive = small, poorly fitted or top-dose-only effect, or another doubt; inactive = no such curve, though single readings can be large or run the other way. Potencies of inconclusive entries are left out as doubtful fits.
# Test: qHTS Assay for Inhibitors of Hepatitis C Virus (HCV)
# Conditions: Huh7.5.1 HCVcc-Cre (HCVcc is cell-culture hepatitis C virus) infection, luciferase reporter, 44 h; activity change, negative = inhibition: at 41.8 µM (top of the series)
# In short: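 1,000 cells/well; 4 h culture; + compound; + HCVcc-Cre (~0.5 moi); 44 h; luciferase substrate, RT 15 min; read 15 sec.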
# % is set by controls: 0 for no effect and ±100 for the full control effect; potency is the fitted concentration of half-maximal effect; tags give direction and shape of the fitted curve.
SMILES,"activity change, negative = inhibition",Potency
CC1=NN(C(C#N)c2ccccc2)C(C)(C)C1 (stereo not drawn),inactive: 13.4%,–
CC(=O)N1CCC(N(CCN2CCOCC2)C(=S)Nc2ccccc2C)CC1,inactive: 25.7%,–
O=C(CCCSc1nc(-c2ccco2)cc(C(F)(F)F)n1)NCC1CCCO1 (stereo not drawn),–,"inconclusive [inhibitor, partial curve, poor fit]"
COc1ccc(NC(=O)COc2ccc(C)c(C)c2)cc1S(=O)(=O)N1CCCCC1,–,"inconclusive [inhibitor, single point]"
COC(=O)c1c(NC(C)=O)sc2c1CCN(Cc1ccccc1)C2,–,"inconclusive [inhibitor, single point]"
COCCNC(=O)c1c(N)n(CCC(C)C)c2nc3ccccc3nc12,–,"inconclusive [inhibitor, single point]"
O=C(c1cccc(S(=O)(=O)NCc2ccccc2)c1)N1CCN(c2ccccc2)CC1,–,"inconclusive [inhibitor, single point]"
CCCCCCn1c(CN2CCCCC2)nc2c1c(=O)n(C)c(=O)n2C,–,"inconclusive [inhibitor, single point]"
Nc1ccc2c(c1)C/C(=C/c1ccco1)C2=O,–,"inconclusive [inhibitor, single point]"
Cc1ccc(NC(=O)COc2ccccc2C#N)cc1S(=O)(=O)N1CCCCCC1,–,active: 10 µM
Cc1cccc(NC(=O)Cc2nc(-c3c[nH]c(C(=O)N4CCCC4)c3)cs2)c1,–,"inconclusive [inhibitor, single point]"
CCOC(=O)c1oc2cc(O)cc(C)c2c1C,–,"inconclusive [inhibitor, single point]"
CC(Sc1nnnn1-c1ccccc1)C(=O)Nc1ccccc1-c1ccccc1 (stereo not drawn),inactive: -1.24%,–
CC1CCN(C(=O)CN2C(=O)NC3(CCCCCC3)C2=O)CC1,inactive: 2.18%,–
COc1ccc(OC)c(/C(C)=N/Nc2ccc(C(=O)O)cc2)c1,inactive: 24%,–
CCN(C(=O)CSc1nncn1-c1ccccc1)C1CCS(=O)(=O)C1 (stereo not drawn),–,"inconclusive [inhibitor, single point]"
O=C(CN1CCN(S(=O)(=O)c2ccc(Cl)cc2)CC1)Nc1ccc2c(c1)OCO2,–,"inconclusive [inhibitor, single point]"
O=C(NCCc1ccc(O)cc1)c1ccc(Cl)cc1,inactive: 0.157%,–
O=S(=O)(c1ccc(Oc2ccccc2)cc1)N1CCOCC1,–,"inconclusive [inhibitor, partial curve, poor fit]"
COc1ccc(S(=O)(=O)N2CCOCC2)cc1NC(=O)COc1ccccc1,inactive: -5.17%,–
Cc1cccc(NC(=O)CSc2nnc(CNC(=O)c3ccc(S(=O)(=O)N(C)C)cc3)n2-c2cccc(C)c2)c1,–,"inconclusive [inhibitor, partial curve, poor fit]"
CCN1CCCC1CNS(=O)(=O)c1cc(Br)cc2c1N(C(=O)C1CC1)CC2 (stereo not drawn),–,"inconclusive [inhibitor, single point]"
CCOC(=O)c1csc(COc2ccc(OC)cc2)n1,inactive: -16.5%,–
NC(=O)c1c(NC(=O)CN2CCCC2)sc2c1CCCC2,–,"inconclusive [inhibitor, single point]"
COc1cc(OC)cc(C(=O)NC(=S)Nc2ccc3c4c(cccc24)CC3)c1,inactive: -18.8%,–

SMILES,"activity change, negative = inhibition",Potency
Cc1ccc(CN2CCN(Cc3cccc(-n4cccn4)c3)CC2CCO)cc1 (stereo not drawn),inactive: -30.9%,–
CC(C)Cc1nc(SCC(=O)N2CCCC2)c2c(=O)n(C)c(=O)n(C)c2n1,inactive: -25.1%,–
O=C(Nc1ccccn1)c1sc2cccc(F)c2c1Cl,–,"inconclusive [inhibitor, partial curve, poor fit]"
Cc1cc(OC(C)C(=O)Nc2cccnc2)ccc1Cl (stereo not drawn),inactive: -2.43%,–
COc1cccc(C(=O)N/N=C(\C)c2ccc(NC(=O)Cc3ccccc3)cc2)c1OC,inactive: -15.9%,–
CC1CN(c2nc3ccccc3nc2SCC(=O)Nc2ccc(F)cc2)CC(C)O1 (stereo not drawn),–,"inconclusive [inhibitor, single point]"
O=C(NCCc1ccccc1)c1ccc(-c2ccccc2C(F)(F)F)o1,inactive: -7.4% [at 8.37 µM],–
COc1cccc(OCc2cc(C(=O)N(Cc3ccccc3)CC3CC3)no2)c1,–,"inconclusive [inhibitor, single point]"
CC1(C)Cc2c(sc3nc(SCC(=O)NCc4ccco4)n(-c4ccccc4)c(=O)c23)CS1,–,"inconclusive [inhibitor, single point]"
COc1cccc(/C=N/Nc2ccccc2C(=O)O)c1O,inactive: 16.4%,–
CCC(=O)Nc1c(C(=O)Nc2ccc3c(c2)OCCO3)oc2ccccc12,inactive: -25.3%,–
C#CCOCCOCCOCCNc1nc(N2CCN(C(=O)C([C@@H](C)O)n3cc([C@@H](N)CCCCN)nn3)CC2)nc(N2CCN(C(=O)[C@H](CCCN=C(N)N)n3cc(C(N)[C@@H](C)CC)nn3)CC2)n1 (stereo partly drawn),inactive: 2.26%,–
CC(=O)Nc1cc(C(=O)NCc2ccco2)ccc1Sc1ccc(C)cc1,inactive: -0.575%,–
CCC1CCCCN1CCCNC(=O)C(C)n1nc(C)c2sc3ccccc3c2c1=O (stereo not drawn),–,"inconclusive [inhibitor, partial curve]"
COc1ccc(C(C)(C)C)cc1S(=O)(=O)n1ccnc1C,inactive: -29.9%,–
C=CC[n+]1c(-c2ccc(Cl)cc2Cl)csc1Nc1ccc(NC(C)=O)cc1,–,"inconclusive [inhibitor, single point]"
O=C(NCc1cccnc1)/C(=C/c1ccc(-c2ccc(Cl)cc2)o1)S(=O)(=O)c1ccccc1,–,active: 7.94 µM
COc1cccc(CNCc2ccccn2)c1OC,inactive: -7.46%,–
COc1cc(C2C(C#N)=C(N)Oc3c2ccc2ccccc32)ccc1OCC(=O)Nc1ccc(C)cc1 (stereo not drawn),–,active: 2 µM
CCOC(=O)CN1C(=O)N[C@@H](CCc2ccccc2)[C@H](C(=O)OC)[C@H]1C,inactive: -18.6%,–
C[C@@H](C(=O)NC1CCCC1)N1C(=O)N2CCc3c([nH]c4ccccc34)[C@@]2(C)C1=O,–,active: 10 µM
Cc1cc(C)nc(N(C#N)Cc2cccc([N+](=O)[O-])c2)n1,inactive: -0.406%,–
O=C(C1CCC(CNc2c(N3CCCCC3)c(=O)c2=O)CC1)N1CCCC1 (stereo not drawn),inactive: 15%,–
CC(Oc1ccc(F)cc1)C(=O)Nc1ccccc1C(=O)NC1CC1 (stereo not drawn),–,"inconclusive [inhibitor, single point]"
O=C(C[C@@H]1C/C=C/CC[C@H](Cc2ccc(F)cc2)C(=O)OC[C@@H](Cc2ccccc2)NC1=O)N[C@H](CO)Cc1ccccc1,–,"inconclusive [inhibitor, single point]"

SMILES,"activity change, negative = inhibition",Potency
CC(C)C(NC(=O)CSCc1ccc([N+](=O)[O-])cc1)C(C)C,inactive: -13.5%,–
Cc1cccc(NC(=O)CSc2nc3nc4c(cc3c(=O)n2-c2ccccc2)CCCC4)c1,–,"inconclusive [inhibitor, single point]"
Fc1ccc(Oc2cc(N3CCOCC3)nc(-c3ccccc3)n2)c(F)c1,–,"inconclusive [inhibitor, partial curve]"
Cc1onc(-c2c(Cl)cccc2Cl)c1C(=O)Nc1ccc(N2CCOCC2)cc1,inactive: -20.4%,–
CCC[C@@H](CN[C@@H](CNC)C(C)C)NCCCCc1ccccc1,–,"inconclusive [inhibitor, partial curve]"
C[C@]12CC[C@H](O)CC1=CCC1C2CC[C@@]2(C)C1CC[C@@H]2NC(=O)[C@@H](N)Cc1cnc[nH]1 (stereo partly drawn),inactive: 8.67%,–
C/C(=N\Nc1nc(C)c(C)s1)c1ccc([N+](=O)[O-])cc1,–,"inconclusive [inhibitor, partial curve, poor fit]"
COc1ccc(-c2nc(SC)n(C)c(=O)c2C#N)cc1OC,inactive: 14.2%,–
O=C(Nc1ccc(C(=O)N2CCOCC2)cc1)c1cccs1,–,"inconclusive [inhibitor, single point]"
CN(C)c1nc(NCc2ccccc2)nc(N/N=C/c2cccc(Br)c2)n1,–,"inconclusive [inhibitor, single point]"
c1ccc(-c2nc(NCc3cccnc3)c3oc4ccccc4c3n2)cc1,–,"inconclusive [inhibitor, single point]"
O=C(Nc1ccccc1)N(CCN1CCOCC1)Cc1ccccc1F,inactive: -9.21%,–
CCN1CCN(Cc2cc(=O)oc3ccc(Cl)cc23)CC1,inactive: -27.4%,–
FC(F)(F)c1nc2ccccc2nc1N/N=C/c1ccc(Cl)cc1,–,"inconclusive [inhibitor, single point]"
CCOc1ccc(CN2CCNC(=O)C2CC(=O)NCCc2ccccn2)cc1 (stereo not drawn),inactive: 6.45%,–
CCOC(=O)C(C)Oc1cccc2c(=O)n(CC(=O)N3CCc4ccccc43)ccc12 (stereo not drawn),–,"inconclusive [inhibitor, partial curve]"
Cc1ccn2c(C=O)c(-c3ccc(F)cc3)c(C=O)c2c1,–,active: 11.2 µM
Cc1nnc(SCC(=O)N/N=C/c2cn(-c3ccccc3)nc2-c2ccccc2)n1-c1ccccc1,–,"inconclusive [inhibitor, partial curve]"
COC(=O)c1c(NC(=O)CCC(=O)O)sc2c1CCCCC2,inactive: 1.13%,–
COc1cc(Cl)c(C)cc1NC(=O)CSC1=NCCS1,–,"inconclusive [inhibitor, single point]"
Cc1nc2ccccc2c2oc(C(=O)NCC3COc4ccccc4O3)cc12 (stereo not drawn),–,active: 10 µM
O=C(Cc1cccc([N+](=O)[O-])c1)Nc1ccc(C(=O)N2CCCCC2)cc1,–,"inconclusive [inhibitor, single point]"
CN(c1ccccc1)S(=O)(=O)c1ccc(C(=O)NCc2ccccc2F)cc1,–,"inconclusive [inhibitor, partial curve]"
